# Measurements published in PMC4336329 (PLoS ONE, 2015).
# Screen size: about 310,000 compounds; about 2,200 (0.71%) showed an effect of 50% or more. Effects have a minus sign here. Some of the results follow.
# Target: human ether-à-go-go-related gene (hERG) potassium channel (human, UniProt Q12809)
# Assay: primary screen, population patch clamp on CHO cells stably expressing hERG
# Sequence of human ether-à-go-go-related gene (hERG) potassium channel (Q12809 whole entry, looked up): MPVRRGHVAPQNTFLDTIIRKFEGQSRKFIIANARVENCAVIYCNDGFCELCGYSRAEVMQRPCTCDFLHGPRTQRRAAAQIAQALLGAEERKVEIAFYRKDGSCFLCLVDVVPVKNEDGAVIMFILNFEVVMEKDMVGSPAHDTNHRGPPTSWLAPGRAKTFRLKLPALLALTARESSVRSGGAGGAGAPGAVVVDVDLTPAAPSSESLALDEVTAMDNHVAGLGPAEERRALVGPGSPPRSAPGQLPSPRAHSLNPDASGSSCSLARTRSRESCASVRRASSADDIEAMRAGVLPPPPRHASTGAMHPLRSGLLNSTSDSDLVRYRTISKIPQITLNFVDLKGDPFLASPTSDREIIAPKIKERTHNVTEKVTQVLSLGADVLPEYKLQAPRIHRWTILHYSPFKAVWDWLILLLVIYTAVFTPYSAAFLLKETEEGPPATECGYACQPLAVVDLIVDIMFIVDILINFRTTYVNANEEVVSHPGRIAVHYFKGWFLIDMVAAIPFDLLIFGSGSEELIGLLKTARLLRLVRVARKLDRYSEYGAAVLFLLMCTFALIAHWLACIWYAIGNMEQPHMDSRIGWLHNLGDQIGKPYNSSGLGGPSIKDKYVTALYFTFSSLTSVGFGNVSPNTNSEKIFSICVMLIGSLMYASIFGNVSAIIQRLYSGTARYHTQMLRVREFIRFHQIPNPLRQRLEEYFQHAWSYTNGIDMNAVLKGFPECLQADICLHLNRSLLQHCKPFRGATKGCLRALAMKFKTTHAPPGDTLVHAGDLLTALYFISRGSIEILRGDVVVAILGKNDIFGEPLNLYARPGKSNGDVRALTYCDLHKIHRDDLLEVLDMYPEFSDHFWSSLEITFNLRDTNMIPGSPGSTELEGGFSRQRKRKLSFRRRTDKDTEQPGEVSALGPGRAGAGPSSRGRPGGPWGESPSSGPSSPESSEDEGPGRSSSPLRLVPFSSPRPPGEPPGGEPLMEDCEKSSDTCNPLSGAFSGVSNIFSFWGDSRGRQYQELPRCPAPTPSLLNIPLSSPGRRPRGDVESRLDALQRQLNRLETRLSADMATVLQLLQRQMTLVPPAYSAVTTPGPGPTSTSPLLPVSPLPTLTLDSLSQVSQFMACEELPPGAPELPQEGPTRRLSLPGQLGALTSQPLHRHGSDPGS
row,SMILES,"hERG current change (%, negative = inhibition) at 1uM [%]"
1,Oc1ccccc1N1CCN(C(=S)NCc2ccccc2)CC1,3.2
2,O=C(NCCN1C(=O)C2C3C=CC(C3)C2C1=O)Nc1cccnc1 (stereo not shown),10.3
3,CCOc1ccccc1NC(=O)c1nnn(-c2ccc3c(c2)OCCO3)c1N,14.2
4,CC(=O)N(c1ccccc1)c1ccc([N+](=O)[O-])cc1[N+](=O)[O-],3.46
5,COC(=O)c1cc(NC(=O)Cc2ccc(OC)c(OC)c2)cc(C(=O)OC)c1,3.88
6,COc1ccc(-c2nnc(SCC#CCO)o2)cc1OC,5.94
7,O=S1(=O)C[C@@H](N2CCOCC2)[C@H](N2CCOCC2)C1,1.34
8,O=[N+]([O-])c1ccc(Nc2ccccc2O)c2nonc12,13.1
9,Cc1ccc2nc(NC(=O)CN3C(=O)C4CC=CCC4C3=O)sc2c1 (stereo not shown),1.36
10,COc1ccc(CNC(=O)[C@H](C)NC(=O)N2CCn3c2nc2ccccc23)cc1,-20.7
11,COc1ccccc1CN(Cc1cc2cc(C)cc(C)c2[nH]c1=O)Cc1nnnn1CC1CCCO1 (stereo not shown),14.1
12,CCOC(=O)C1CCN(S(=O)(=O)Cc2ccc(Cl)cc2)CC1,17.4
13,CN(CC(=O)Nc1ccc(F)cc1)CC(=O)N(C)C1(C#N)CCCCC1,0.449
14,O=C(Cn1cncn1)c1ccccc1,4.12
15,NC(C(=O)O)c1cc(=O)[nH]o1 (stereo not shown),9.36
16,CC(C)CCNCC(O)CON=C1c2ccccc2-c2ccccc21 (stereo not shown),2
17,CCOc1ccc(/C=C2/C(=O)N(c3ccc(OC)cc3)C(=S)N2CC(=O)OC)cc1OCC,4.96
18,COc1ccc(-c2csc(NC(=O)C3CC(=O)N(Cc4ccccc4)C3)n2)cc1OC (stereo not shown),7.61
19,CCOc1ccc(N(CC(=O)NN=C2CCN(C)CC2)S(=O)(=O)c2ccc(Br)cc2)cc1,-11.3
20,CC(C)CCN1CCN(Cc2ccc3nsnc3c2)CC1CCO (stereo not shown),-21.3
21,CC(C)(Cc1ccc(O)cc1)NC(=O)CC(=O)N=Nc1c(O)[nH]c2ccc(Br)cc12,21.3
22,O=C(CSc1nccn(-c2cccc(F)c2)c1=O)Nc1ccc(Cl)cc1F,15

row,SMILES,"hERG current change (%, negative = inhibition) at 1uM [%]"
1,CCOC(=O)c1sc(NC(=O)Nc2cccc(Cl)c2)cc1C,10.7
2,Cc1ccc2c(c1)NC(=O)C(CC(=O)NC1CCCCC1C)O2 (stereo not shown),2.12
3,O=C(/C=C/c1cc([N+](=O)[O-])ccc1OC(F)F)Nc1ccc(OC(F)F)cc1,13.3
4,CCN(CC)CCC(=O)NN,6.1
5,O=C1Nc2ccc([N+](=O)[O-])cc2C1(O)N1CCCCCC1 (stereo not shown),0.0481
6,O=C1c2ccccc2S(=O)(=O)c2cc(N3CCOCC3)ccc21.O=C1c2ccccc2S(=O)(=O)c2cc(N3CCOCC3)ccc21,8.78
7,O=C(CCC(=O)Nc1ccc(Cl)cc1)N/N=C/c1ccc2c(c1)OCO2,15.8
8,O=C(O)c1ccc(NC(=O)C2(c3ccccc3)CCOCC2)cc1,13.8
9,O=C(O)/C(=C\c1ccc(Br)cc1)NC(=O)c1cccs1,11.4
10,COC(=O)c1cc(C(=O)NCCN2C(=O)S/C(=C\c3cccs3)C2=O)cc([N+](=O)[O-])c1,1.6
11,CCCCN(C(=O)NC(=O)Nc1ccccc1OCC)S(C)(=O)=O,10.9
12,CCN1CCN(CCCOc2ccc(-c3ccccc3)cc2)CC1,-39.8
13,COc1ccc2c3c1OC1CC(O)C=CC31CCN(C)C2.I (stereo not shown),19.1
14,O=NN1CCN(c2ccncc2S(=O)(=O)N2CCCCC2)CC1,14.3
15,C=CCn1c(COc2cccc3ccc(C)nc23)nnc1SCC(=O)OC,1.8
16,CC12CCC(C(=O)N(Cc3ccccc3)Cc3ccccc3)(OC1=O)C2(C)C (stereo not shown),8.51
17,COc1ccccc1CN1CCN(Cc2cc(OC)c(OC)cc2OC)CC1.O=C(O)C(=O)O,2.86
18,CC(=O)C(N=Nc1ccccc1)(Sc1nnc(-c2ccccc2)n1-c1ccccc1)C(C)=O,11.6
19,COc1cc(OC)cc(C(=O)NCCSc2c[nH]c3ccccc23)c1,2.36
20,Cc1cc(-c2csc(NC(=O)c3ccc(C#N)cc3)n2)c(C)n1Cc1ccco1,17.6
21,COc1ccccc1S(=O)(=O)Cc1ccc(C(=O)N2CCN(c3ccccn3)CC2)o1,-1.31
22,CCCC(C)C(=O)Nc1ccc(Cl)cn1 (stereo not shown),13.1

row,SMILES,"hERG current change (%, negative = inhibition) at 1uM [%]"
1,CC(C)(C)NC(=O)C(c1ccc(O)cc1)N(Cc1ccco1)C(=O)CCC(=O)Nc1ccccn1 (stereo not shown),7.67
2,CCC(=O)Nc1nnc(S(=O)(=O)N2CCCC2)s1,12.2
3,O=C(Nc1ncn[nH]1)c1cccc(S(=O)(=O)N2CCOCC2)c1,10.5
4,CCn1cc(CNC(=O)c2ccc(OC3CCN(Cc4ccccn4)CC3)cc2)cn1,9.41
5,C=CCNC(=O)N[C@@H](Cc1ccccc1)C(=O)OC,15.1
6,O=C(C[n+]1cc(-c2ccccc2)n2c1CCC2)N1c2ccccc2Sc2ccccc21.[Cl-],6.31
7,NS(=O)(=O)c1ccc(CNC(=O)c2ccc(NS(=O)(=O)c3ccc4[nH]c(=O)[nH]c4c3)cc2)cc1,-9.86
8,CCN(CC)C(=O)c1cccc(NC(=O)c2ccccc2OCc2c(C)noc2C)c1,-0.828
9,COc1ccc(NS(=O)(=O)c2cccc(C(=O)NNC(=O)c3ccc(Br)o3)c2)cc1,6.63
10,N#CCCN(C(=O)COC(=O)CCc1ccccc1)c1ccccc1,6.66
11,Cc1ccc(NC(=O)CN2C(=O)CC(C)S(=O)(=O)c3ccccc32)cc1 (stereo not shown),10.1
12,CCOC(=O)c1c(C)nc2c(c1-c1ccc(Cl)cc1)C(=O)CC(C)(C)C2,12.8
13,CN(C)c1ccc(NC(=O)C2CCCN(S(=O)(=O)c3ccccc3)C2)cc1 (stereo not shown),9.75
14,CC1CN=C(Nc2ccc(N(C)C)cc2)S1 (stereo not shown),10.3
15,O=C(OCCN1CCN(C2=NS(=O)(=O)c3ccccc32)CC1)c1cccc(Br)c1,-26.1
16,O=C(CSc1nnc(NC(=O)Cc2ccc(F)cc2)s1)NCc1ccco1,3.46
17,CN(C)S(=O)(=O)c1ccc(C(=O)N2CC(=O)Nc3ccc(F)cc3C2c2ccc(F)cc2)cc1 (stereo not shown),6.56
18,CCOC(=O)c1sc(=S)n(-c2ccccc2OC)c1N,8.38
19,Br.CCCCn1c(=N)n(CC(=O)C(C)(C)C)c2ccccc21,-28.2
20,O=c1nc(N2CCCCCC2)nc(N2CCCCCC2)[nH]1,1.56
21,CCN(C(=O)c1cccc(Br)c1)C1CCS(=O)(=O)C1 (stereo not shown),8.5
22,COc1cc(/C=N/N=C2/NC(=O)C(Cc3ccccc3)S2)ccc1O (stereo not shown),3.18

row,SMILES,"hERG current change (%, negative = inhibition) at 1uM [%]"
1,O=C(CSC1=N/C(=C/c2ccc(Cl)c(Cl)c2)C(=O)N1c1ccccc1F)NC1CC1,7
2,COc1ccccc1/C=N/NC(=O)CC(=O)NCCc1ccccc1,11.2
3,COc1ccccc1-n1c(=O)[nH]c2c(C(N)=O)nc(C3CCCCC3)nc21,8.91
4,CC(Oc1ccc(Br)cc1)C(=O)NCC1(N2CCCCC2)CCCCC1 (stereo not shown),-2.47
5,O=C(Nc1cc(Cl)ccn1)C1(c2ccccc2)CC1(Cl)Cl (stereo not shown),15.2
6,CC(C)(C)c1cc(C(=O)NCC(=O)OCC(=O)c2cccc([N+](=O)[O-])c2)cc(C(C)(C)C)c1,13.2
7,CC1(C)CC(O)C(C(O)c2cccc([N+](=O)[O-])c2)C(C)(C)N1 (stereo not shown),22.9
8,Cc1cccc(C(=O)OCC(=O)NCCCc2ccccc2)c1,12.6
9,CCOC(=O)c1[nH]c2ccc(OC)cc2c1NC(=O)c1ccccc1C(=O)O,14
10,COCC(=O)Nc1ccc2nc3n(c(=O)c2c1)CCCCC3,11.3
11,Cc1nc(C(=O)N(C)C)nn1-c1cc(Cl)ccc1Cl,15.6
12,CCCCC(CCC(=O)O)(C(=O)OCC)c1csc(Nc2ccccc2)n1 (stereo not shown),11.3
13,O=C(c1cccc(N2C(=O)C3C4C=CC(C4)C3C2=O)c1)N1CCN(c2ccccc2Cl)CC1 (stereo not shown),12.2
14,CC1=C(C#N)CCC(=O)N1Cc1c(C)cc(C)cc1C,9.07
15,Cc1ccc(C(C)n2cc(C(=O)NCc3cccnc3)nn2)cc1 (stereo not shown),3.85
16,CC(C)n1c(/C=C/c2ccccc2)nc2ccccc21,2.24
17,COc1ccc(NC(=O)c2nc[nH]c2C(=O)NCCCCCNC(=O)OC(C)(C)C)cc1,18.2
18,O=C(COC(=O)C1CC1)Nc1ccc(Oc2ccccc2)cc1,8.39
19,Clc1cccc(Cl)c1OCCCCN1CCCCC1.O=C(O)C(=O)O,0.923
20,CNC(=O)c1cccc2cccc(Sc3ccccc3C(=O)O)c12,2.7
21,Cc1ccccc1NC(=O)C1C2C=CC(C3CC23)C1C(=O)O (stereo not shown),9.39
22,COc1ccc(-c2c(-c3cc(OC)cc(OC)c3)n(C)c3ccc(-c4ccn[nH]4)cc23)cc1,6.44
